{"source": "paper PMC4336329", "about": "(PLoS ONE, 2015)", "note": "About 14,000 (4.5%) of roughly 310,000 compounds showed an effect of 50% or more. Effects have a minus sign here. The list shows a part of the results.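 Further: peak tail current of the secondary pulse compared with the same well before compound.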", "data": [{"target": "human ether-à-go-go-related gene (hERG) potassium channel (human, UniProt Q12809)", "sequence (Q12809 whole entry, looked up)": "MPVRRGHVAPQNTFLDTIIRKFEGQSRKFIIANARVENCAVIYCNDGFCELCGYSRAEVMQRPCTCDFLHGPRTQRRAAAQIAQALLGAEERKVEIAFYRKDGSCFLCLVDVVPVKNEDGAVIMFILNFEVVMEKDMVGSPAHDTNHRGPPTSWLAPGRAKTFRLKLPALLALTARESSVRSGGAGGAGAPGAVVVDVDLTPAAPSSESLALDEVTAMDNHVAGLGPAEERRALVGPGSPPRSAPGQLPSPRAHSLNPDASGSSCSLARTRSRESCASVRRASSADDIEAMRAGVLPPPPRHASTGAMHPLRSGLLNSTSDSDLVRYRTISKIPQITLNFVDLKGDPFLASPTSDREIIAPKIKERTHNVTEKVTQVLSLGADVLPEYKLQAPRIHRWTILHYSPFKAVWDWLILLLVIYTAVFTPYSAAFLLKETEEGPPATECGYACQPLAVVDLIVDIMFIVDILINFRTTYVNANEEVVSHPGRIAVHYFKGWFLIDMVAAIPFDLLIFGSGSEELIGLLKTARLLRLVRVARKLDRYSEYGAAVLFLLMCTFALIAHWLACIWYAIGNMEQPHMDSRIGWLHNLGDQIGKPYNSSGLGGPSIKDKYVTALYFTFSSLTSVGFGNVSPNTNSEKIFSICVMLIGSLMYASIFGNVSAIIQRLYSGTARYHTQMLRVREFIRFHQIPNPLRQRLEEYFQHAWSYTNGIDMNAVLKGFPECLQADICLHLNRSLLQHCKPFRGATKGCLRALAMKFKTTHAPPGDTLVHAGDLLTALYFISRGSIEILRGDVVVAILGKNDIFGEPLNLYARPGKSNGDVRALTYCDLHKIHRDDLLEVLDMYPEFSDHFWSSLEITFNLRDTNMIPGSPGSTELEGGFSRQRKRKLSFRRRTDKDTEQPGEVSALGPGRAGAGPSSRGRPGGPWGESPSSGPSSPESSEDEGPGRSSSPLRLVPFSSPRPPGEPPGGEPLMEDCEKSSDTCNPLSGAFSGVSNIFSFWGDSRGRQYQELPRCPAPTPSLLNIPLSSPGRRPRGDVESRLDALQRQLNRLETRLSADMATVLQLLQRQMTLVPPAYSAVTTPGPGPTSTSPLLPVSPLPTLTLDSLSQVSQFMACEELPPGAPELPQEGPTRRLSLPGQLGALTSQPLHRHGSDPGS", "assay": "primary screen, population patch clamp on CHO cells stably expressing hERG", "units": {"hERG current change (%, negative = inhibition) at 10uM": "%"}, "values": [{"smiles": "COc1ccc(OC)c(C(=O)NC(CC(N)=O)c2ccc(N3CCN(c4ccccc4)CC3)c([N+](=O)[O-])c2)c1", "note": "(stereo not drawn)", "hERG current change (%, negative = inhibition) at 10uM": 9.86}, {"smiles": "O=C(Cc1ccc(S(=O)(=O)N2CCOCC2)s1)Nc1ccc(N2CCOCC2)cc1", "hERG current change (%, negative = inhibition) at 10uM": 40.5}, {"smiles": "COc1ccc(S(=O)(=O)NCC(c2ccc3c(c2)OCO3)N2CCN(c3ccccc3)CC2)cc1", "note": "(stereo not drawn)", "hERG current change (%, negative = inhibition) at 10uM": 0.826}, {"smiles": "CCOC(=O)COc1c(OC)cc(Cl)cc1C1Nc2ccccc2C(=O)N1c1ccccc1", "note": "(stereo not drawn)", "hERG current change (%, negative = inhibition) at 10uM": -11}, {"smiles": "Cc1ccc(S(=O)(=O)N2CCCNCC2)cc1", "hERG current change (%, negative = inhibition) at 10uM": 8.85}, {"smiles": "CCCN(CCC)CCCn1c(=O)[nH]c2ccccc21.Cl", "hERG current change (%, negative = inhibition) at 10uM": 1.79}, {"smiles": "COc1ccc2oc(-c3ccc(C)c(NC(=O)c4ccc(N5CCOCC5)c([N+](=O)[O-])c4)c3)nc2c1", "hERG current change (%, negative = inhibition) at 10uM": -3.95}, {"smiles": "CCC(CNc1cc(OC)cc2cccnc12)NC1CCCCC1", "note": "(stereo not drawn)", "hERG current change (%, negative = inhibition) at 10uM": -26.2}, {"smiles": "O=C(COC(=O)c1cc(Br)ccc1Cl)NC(=O)NCc1ccccc1", "hERG current change (%, negative = inhibition) at 10uM": 19}, {"smiles": "COc1ccc(N2CC(C(=O)NCCC3=CCCCC3)CC2=O)cc1", "note": "(stereo not drawn)", "hERG current change (%, negative = inhibition) at 10uM": -8.81}, {"smiles": "COc1ccc(CCNC(=O)CN2C(=O)COc3ccc(S(=O)(=O)N4CCOCC4)cc32)c(OC)c1", "hERG current change (%, negative = inhibition) at 10uM": -28.1}, {"smiles": "Cc1cc(C)nc(-n2nc(C)cc2NC(=O)c2cccc(S(=O)(=O)N(C)C)c2)n1", "hERG current change (%, negative = inhibition) at 10uM": -49.8}, {"smiles": "CC(C)C(c1nnnn1C1CCCC1)N1CCN(c2ccccc2F)CC1", "note": "(stereo not drawn)", "hERG current change (%, negative = inhibition) at 10uM": 0.713}, {"smiles": "COc1ccc(CCNc2cc(C)nc3c(-c4ccccc4)c(C)nn23)cc1OC", "hERG current change (%, negative = inhibition) at 10uM": -6.67}, {"smiles": "N#CCSc1nnc(-c2ccccc2O)n1CCc1ccccc1", "hERG current change (%, negative = inhibition) at 10uM": -10.7}, {"smiles": "Cc1ccc2nc(SCC(=O)Nc3ccc(F)cc3F)nc(=O)n2c1", "hERG current change (%, negative = inhibition) at 10uM": -8.49}, {"smiles": "CCN(CC(=O)NCc1ccc(Cl)cc1)CC(=O)NC1(C#N)CCCC1", "hERG current change (%, negative = inhibition) at 10uM": -19.2}, {"smiles": "Cn1cc(Br)c(C(=O)Nc2ncc(Br)s2)n1", "hERG current change (%, negative = inhibition) at 10uM": 21}, {"smiles": "CCn1c(SCc2ccccc2)nc2cc(S(N)(=O)=O)ccc21", "hERG current change (%, negative = inhibition) at 10uM": -7.25}, {"smiles": "Cc1nn(Cc2ccccc2)c(Cl)c1C(=O)OCC(=O)NCC1CCCO1", "note": "(stereo not drawn)", "hERG current change (%, negative = inhibition) at 10uM": -7.26}, {"smiles": "COc1ccc(CN2CCNC(=O)C2CC(=O)NC2CCC2)c(OC)c1", "note": "(stereo not drawn)", "hERG current change (%, negative = inhibition) at 10uM": 7.1}, {"smiles": "Cl.Nc1nc(N)c2[nH]c(-c3ccccc3)nc2n1", "hERG current change (%, negative = inhibition) at 10uM": 5.45}, {"smiles": "N#Cc1ccsc1NC(=O)c1cccc(-n2cnnn2)c1", "hERG current change (%, negative = inhibition) at 10uM": 6.03}, {"smiles": "Cc1cccc(NC(=O)c2ccc(N3CCOCC3)c([N+](=O)[O-])c2)n1", "hERG current change (%, negative = inhibition) at 10uM": -20.1}, {"smiles": "CCOC(=O)N/N=C(\\C)c1ccc(Br)cc1", "hERG current change (%, negative = inhibition) at 10uM": -4.03}, {"smiles": "Cc1ccc(-c2nn[nH]n2)o1", "hERG current change (%, negative = inhibition) at 10uM": 17.5}, {"smiles": "Cc1cc(Oc2ccc(-c3ccccc3)cc2)nc(N2CCOCC2)n1", "hERG current change (%, negative = inhibition) at 10uM": -1.32}, {"smiles": "C[C@@H]1CC=C[C@H]2[C@H]1C(=O)N(Cc1ccccc1)[C@H]2c1ccc(Br)cc1F", "hERG current change (%, negative = inhibition) at 10uM": 18}, {"smiles": "CCN1/C(=C2/SC(=S)NC2=O)Sc2ccccc21", "hERG current change (%, negative = inhibition) at 10uM": 16.4}, {"smiles": "CCOC(=O)C(C(=O)Nc1cccc(C)c1)C1CCCCC1", "note": "(stereo not drawn)", "hERG current change (%, negative = inhibition) at 10uM": -6.99}, {"smiles": "CCOC(=O)C(C)Sc1ncc(-c2ccccc2)cn1", "note": "(stereo not drawn)", "hERG current change (%, negative = inhibition) at 10uM": -1.33}, {"smiles": "Nn1c(SCC(=O)Nc2ccccc2C(F)(F)F)nncc1=O", "hERG current change (%, negative = inhibition) at 10uM": 18.3}, {"smiles": "Cc1ccc(CNC(=O)c2cc(-c3ccccc3)n(Cc3cc(C)no3)n2)cc1", "hERG current change (%, negative = inhibition) at 10uM": -29.1}, {"smiles": "NC(=O)c1csc(-c2ccncc2)n1", "hERG current change (%, negative = inhibition) at 10uM": 3.87}, {"smiles": "COC(=O)C1=C(c2ccccc2)C[C@@H]2CC[C@H]1N2C(=O)NCc1ccco1", "hERG current change (%, negative = inhibition) at 10uM": 7.46}, {"smiles": "O=C(CN1C(=O)NC2(CCc3ccccc32)C1=O)Nc1cc(C(F)(F)F)ccc1N1CCOCC1", "note": "(stereo not drawn)", "hERG current change (%, negative = inhibition) at 10uM": -5.15}, {"smiles": "CCCS(=O)(=O)N1CCC(C(=O)NCCc2ccc(OC)c(OC)c2)CC1", "hERG current change (%, negative = inhibition) at 10uM": 13.5}, {"smiles": "COc1cccc(NC(=O)CSc2nc(=O)n(Cc3ccncc3)c3c2CCCC3)c1", "hERG current change (%, negative = inhibition) at 10uM": -10.9}, {"smiles": "Nc1nc2c(nc(SCc3ccccc3Br)n2[C@@H]2O[C@H](CO)[C@@H](O)[C@H]2O)c(=O)[nH]1", "hERG current change (%, negative = inhibition) at 10uM": 13.5}, {"smiles": "CC(=O)Nc1ccc(NC(=O)CCc2ccc(C)o2)cc1", "hERG current change (%, negative = inhibition) at 10uM": 19.8}, {"smiles": "O=C1NC[C@@H](Cc2cccc3ccccc23)N(CCC23CC4CC(CC(C4)C2)C3)C1=O", "hERG current change (%, negative = inhibition) at 10uM": 20.5}, {"smiles": "Cc1cc(C)cc(C(=O)NCC(=O)OCC(=O)N(C)c2ccccc2)c1", "hERG current change (%, negative = inhibition) at 10uM": 14.4}]}]}
